# Among all 310,000 compounds or so, about 14,000 (4.5%) showed an effect of 50% or more. Effects have a minus sign here. This is one part of the list.
# Target: human ether-à-go-go-related gene (hERG) potassium channel (human, UniProt Q12809)
# Assay: primary screen, population patch clamp on CHO cells stably expressing hERG
# 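Further: peak tail current of the secondary pulse compared with the same well before compound.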
# human ether-à-go-go-related gene (hERG) potassium channel, sequence (Q12809 whole entry, looked up): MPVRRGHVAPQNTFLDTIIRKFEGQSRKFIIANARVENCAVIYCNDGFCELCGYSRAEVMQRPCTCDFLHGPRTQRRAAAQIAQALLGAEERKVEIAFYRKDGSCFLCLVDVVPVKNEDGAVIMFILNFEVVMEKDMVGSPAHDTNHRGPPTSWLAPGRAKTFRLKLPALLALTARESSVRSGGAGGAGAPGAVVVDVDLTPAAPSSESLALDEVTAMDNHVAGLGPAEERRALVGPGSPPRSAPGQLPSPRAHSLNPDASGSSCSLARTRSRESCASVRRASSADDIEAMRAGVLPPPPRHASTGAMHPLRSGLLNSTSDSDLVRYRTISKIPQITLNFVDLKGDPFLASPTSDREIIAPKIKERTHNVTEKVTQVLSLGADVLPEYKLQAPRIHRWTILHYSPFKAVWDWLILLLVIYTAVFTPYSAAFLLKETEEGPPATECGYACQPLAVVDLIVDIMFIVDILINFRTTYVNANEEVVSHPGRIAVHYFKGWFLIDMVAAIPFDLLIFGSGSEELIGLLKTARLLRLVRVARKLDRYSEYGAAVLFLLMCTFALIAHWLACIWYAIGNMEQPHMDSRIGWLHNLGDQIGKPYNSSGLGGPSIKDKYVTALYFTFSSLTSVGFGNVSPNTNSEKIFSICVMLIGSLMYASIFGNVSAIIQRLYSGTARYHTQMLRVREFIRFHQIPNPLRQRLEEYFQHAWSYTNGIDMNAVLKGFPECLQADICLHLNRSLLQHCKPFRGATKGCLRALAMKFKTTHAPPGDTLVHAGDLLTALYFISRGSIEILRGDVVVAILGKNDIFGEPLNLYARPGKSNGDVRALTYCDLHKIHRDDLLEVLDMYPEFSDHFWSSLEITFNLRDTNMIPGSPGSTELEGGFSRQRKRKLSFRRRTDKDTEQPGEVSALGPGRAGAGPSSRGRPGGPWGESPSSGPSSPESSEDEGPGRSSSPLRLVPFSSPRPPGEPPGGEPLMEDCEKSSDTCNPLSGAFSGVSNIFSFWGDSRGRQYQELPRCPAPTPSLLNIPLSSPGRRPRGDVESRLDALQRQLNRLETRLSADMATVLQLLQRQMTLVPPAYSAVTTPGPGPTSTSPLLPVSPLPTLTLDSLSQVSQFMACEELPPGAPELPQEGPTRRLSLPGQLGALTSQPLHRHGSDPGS
row,SMILES,"hERG current change (%, negative = inhibition) at 10uM [%]"
1,Cc1cccc(Cl)c1OCCCCn1ccnc1,-25.9
2,O=C(NCCCn1ccnc1)c1cc(S(=O)(=O)N2CCOCC2)ccc1F,26.8
3,CCOCCCNC(=O)c1ccc(NC(=O)C2CCCO2)cc1 (stereo not shown),10.9
4,CC(C)(C)[C@H]1CCC(=O)N([C@H](CSc2ccccc2)Cc2ccccc2)CC1,-3.06
5,O=c1[nH]c(Cc2ccccc2)nc2ccccc12,9.09
6,Cc1[nH]c2ccc(C(=O)N3CCCC3)cc2c1C,-11.2
7,N/C(=N\O)c1ccccc1N1CCCCC1,-2.03
8,C=CCOC(=O)COc1ccc2c(C)c(C)c(=O)oc2c1,-27.5
9,CCOC(=O)N1CCN(c2c(NCc3cccs3)c(=O)c2=O)CC1,9.04
10,Cn1c(=O)c2c(nc(SCCN3CCOCC3)n2Cc2cccc3ccccc23)n(C)c1=O,-48.3
11,O=C(CCCN1C(=O)/C(=C\c2ccco2)SC1=S)Nc1ccc(O)cc1C(=O)O,23.4
12,C=CCN1C=C2C(=O)C(C)(OC(=O)c3cccs3)C(=O)C=C2C=C1CCCC(=O)OC (stereo not shown),-10.6
13,COc1ccccc1S(=O)(=O)Cc1ccc(C(=O)NCc2ccc(C)cc2)o1,-28.4
14,Cn1c(SCC(=O)C(C)(C)C)nnc1-c1ccc(F)cc1,6.19
15,CCc1nc(C)ccc1OCC(=O)N1CCc2c([nH]c3ccccc23)C1c1ccccn1 (stereo not shown),-44
16,COCCN(C(=O)COC(=O)/C=C/c1ccc2ccccc2n1)c1c(N)n(Cc2ccccc2)c(=O)[nH]c1=O,17.1
17,COCC1CCCCN1C(=O)c1cccc(OC2CCN(C(=O)C3CC3)CC2)c1 (stereo not shown),-9.38
18,CCCCC1=CC2=CC(=O)C(C)(OC(=O)CC)C(=O)C2=CN1CCc1c[nH]c2ccccc12 (stereo not shown),-3.97
19,CN(C)CCCC(C)(O)C(C)(C)c1ccccc1.Cl (stereo not shown),-3.15
20,O=c1cc(CSc2ccc(Cl)cc2)nc(N2CCCCC2)[nH]1,8.16
21,CN1CCc2nc(SC(C(=O)O)c3ccccc3)c(C#N)c(-c3cccs3)c2C1 (stereo not shown),19.4
22,CCCCN(C(=O)C1CSC2(C)CCC(=O)N12)c1c(N)n(CC(C)C)c(=O)[nH]c1=O (stereo not shown),11

row,SMILES,"hERG current change (%, negative = inhibition) at 10uM [%]"
1,COc1ccc2oc(C(=O)OCC(=O)Nc3ccc(OC)c(S(N)(=O)=O)c3)c(C)c2c1,-4.61
2,COc1ccc(/C=C/C(=O)c2ccccc2)cc1Cn1nnc2ccccc21,14.1
3,CCOC(=O)[C@@H]1[C@H]2COc3ccccc3[C@@H]2N2C(=O)N(c3ccc(C)cc3)C(=O)[C@]12C,-1.58
4,CCCCC1=CC2=CC(=O)C(C)(OC(=O)CC)C(=O)C2=CN1CC(C)C (stereo not shown),2.23
5,CCOC(=O)C1=C(SCC(=O)Nc2ccccc2)NC(=O)C(C#N)C12CCCCC2 (stereo not shown),-5.43
6,COC(=O)C(NC(=O)C(C)NC(=O)OCc1ccccc1)C(C)C (stereo not shown),20.3
7,O=[N+]([O-])c1cc(S(=O)(=O)Nc2ccccc2)ccc1N1CCN(c2ccccc2)CC1,-3.6
8,O=C(c1ccc(Cl)cc1)N(Cc1cccs1)C1CCS(=O)(=O)C1 (stereo not shown),-24.4
9,Br.CCOC(=O)C(CC)(CCC(=O)OC)c1csc(Nc2ccccc2O)n1 (stereo not shown),4.16
10,C=CCn1c(SCc2ccc(C(=O)OC)cc2)nnc1-c1sc(N)nc1C,-8.5
11,O=C(NCC1CCCO1)C(=Cc1cccc([N+](=O)[O-])c1)C(=O)NCC1CCCO1 (stereo not shown),-12.2
12,CCn1cc(CNC(=O)c2ccc3nc(Cc4ccccc4F)oc3c2)cn1,11.2
13,CCOC(=O)c1c(C)[nH]c(C(=O)N/N=C\c2ccccc2O)c1C,-2.88
14,CNC(=O)COC(=O)CCC(=O)c1cccs1,-19.5
15,Cc1ccc(Cl)cc1N1CCN(S(=O)(=O)c2c(C)noc2C)CC1,-2.62
16,COc1cc(-c2nn3c(-c4cccc(C)c4)nnc3s2)cc(OC)c1OC,13.1
17,Cn1nc(C(=O)Nc2cccc(S(=O)(=O)N3CCCC3)c2)c2ccccc2c1=O,-4.87
18,COc1ccccc1CC(=O)NNS(=O)(=O)c1ccccc1[N+](=O)[O-],14.2
19,CC(=O)c1ccc(NC(=O)C2(c3ccccc3)CC2(Cl)Cl)cc1 (stereo not shown),-5.48
20,Cc1nn(-c2ccccc2)c(N2CCCC2)c1/C=N/NC(=O)C1CC1,-3.43
21,O=C(NCc1ccc(F)cc1)c1c(O)c2cccc3c2n(c1=O)CCC3,10
22,O=P(O)(O)O.Oc1ccc(Br)cc1/C=N/N1CCCCC1,-3.08

row,SMILES,"hERG current change (%, negative = inhibition) at 10uM [%]"
1,O=C(COC(=O)c1cc[n+]([O-])cc1)Nc1ccc([N+](=O)[O-])cc1Cl,-2.91
2,CN(C)C(=O)COC(=O)/C=C/c1cn(-c2ccccc2)nc1-c1cccs1,-9.03
3,Cc1ccc(C)c(Cn2nnc3c(=O)[nH]c(C(=O)NCC4CCCO4)nc32)c1 (stereo not shown),-9.9
4,Cc1ccc(NC(=O)c2ncc(Cl)c(Cl)c2Cl)cc1C,10.1
5,CCCCCn1c(=O)[nH]c2cc(C(=O)NCCCN3CCCCC3C)ccc2c1=O (stereo not shown),-37.7
6,CCOC(=O)/C(C#N)=C1/C=Cc2ccccc2N1CC,-9.05
7,COc1cccc(CNCc2ccc(OC)cc2OC)c1.O=C(O)C(=O)O,-14.1
8,Cc1ccc(SCc2cn3ccccc3n2)cc1,-7.57
9,CC1(C)CC(=O)C(C(=O)/C=C/NCCc2ccccc2)C(=O)C1,1.14
10,CCNC(=S)Nc1ccc(C)c(S(=O)(=O)Nc2ccccc2OC)c1,-12.7
11,O=[N+]([O-])c1cc2c(cc1/C=N/Nc1nc(Nc3ccccc3)nc(N3CCCCC3)n1)OCO2,3.5
12,O=C(OCC(=O)N1CCc2ccccc2C1)c1cccs1,33.2
13,COCC(=O)Nc1cccc(C(F)(F)F)c1,-3.13
14,COc1cc2c(cc1OC)CN(S(C)(=O)=O)CC2,10.1
15,COc1ccccc1C(=O)n1nc(-c2ccco2)nc1N,9.08
16,O=C1c2oc3ccc(F)cc3c(=O)c2C(c2ccccc2)N1CC1CCCO1 (stereo not shown),-12.4
17,COc1ccc(N2C(=S)N=C(Nc3ccccc3)C23CCCCC3)cc1,16.3
18,COc1ccc(Cn2nnnc2C(c2ccc(N(C)C)cc2)N2CCC(C(N)=O)CC2)cc1 (stereo not shown),-25.3
19,COc1ccc(N(Cc2cc(=O)[nH]c3ccccc23)C(C)=O)cc1,1.79
20,COc1cc(OC)cc(C(=O)NNC(=O)c2cc(S(=O)(=O)N3CCOCC3)ccc2F)c1,-1.89
21,COc1ccc(OC)c(S(=O)(=O)NCc2nc3nc(C)cc(C)n3n2)c1,19.5
22,Cc1ccc(/C=N/n2c(C3CCCCC3)n[nH]c2=S)cc1,29.9

row,SMILES,"hERG current change (%, negative = inhibition) at 10uM [%]"
1,CC1=C(C(=O)Nc2ccccc2Cl)C(c2ccc(N(C)C)cc2)NC(=O)N1 (stereo not shown),12.4
2,CNC(=O)c1[nH]cnc1C(=O)Nc1ccccc1OC,1.81
3,CC1=Nc2cccc3cccc(c23)N1C,-15.1
4,CCCOc1ccc(C(=O)OCC(=O)NCCc2ccc(OCC)c(OCC)c2)cc1OC,6.62
5,CCCN[C@H]1CCc2nc(N)sc2C1.Cl,20.3
6,CCCCNS(=O)(=O)c1ccc2nc(SCC(=O)c3ccc(C#N)cc3)[nH]c2c1,-11.7
7,Nc1c(/C=C2/C=CC(=O)C(O)=C2)c(=O)nc2sc(CC(=O)N3CCCC3)nn12,13.9
8,CCc1ccc(NC(=O)C2C3/C=C\CCCCC32)cc1 (stereo not shown),29.3
9,CCCCC1=CC2=CC(=O)C(C)(OC(=O)CC)C(=O)C2=CN1Cc1ccco1 (stereo not shown),-32
10,NNC(=S)Nc1ccc(S(=O)(=O)N2CCCCC2)cc1,11.7
11,COc1ccnc(Nc2cccc(C)c2)c1C#N,-35
12,CC(C)CCNC(=O)c1cc(S(=O)(=O)N2CCc3ccccc32)cn1C,10.2
13,Cl.c1ccc(N2CCN(c3nc(NCc4ccco4)c4ccccc4n3)CC2)cc1,-73.6
14,Cc1cc(=O)[nH]c(SCC(=O)c2ccccc2)c1C#N,-8.43
15,Cc1cccc(Nc2ccc(S(=O)(=O)N3CCOCC3)cc2[N+](=O)[O-])c1,-30.2
16,CC(C)c1onc(C(=O)Nc2cccnc2Cl)c1[N+](=O)[O-],12.4
17,FC(F)(F)c1cnc(N2CCC(=NOCc3ccc(Cl)cc3)CC2)c(Cl)c1,29.6
18,Cc1ccc(NC(=O)C2CCN(S(=O)(=O)c3c(C)noc3/C=C/N(C)C)CC2)cc1,-5.19
19,CC(C)n1ncc2c(C(=O)NCc3ccccc3CN(C)C)cc(C3CC3)nc21,-21.5
20,Cc1cc(C)nc(Sc2c(C)n[nH]c2C)n1,4.59
21,CC1(C)CC(=O)C(Sc2ccccc2C(=O)O)=C(O)C1,17
22,CC1CCCCC1NC(=O)CSc1nnc(CC(=O)Nc2ccccc2F)n1C (stereo not shown),15.4

# From article PMC4336329 (PLoS ONE, 2015)
